Results from PMC5940305, “The Rab11-binding protein RELCH/KIAA1468 controls intracellular cholesterol distribution” (The Journal of Cell Biology, 2018).
Results are given in words; binding and its absence hold for the method and conditions named. Binding seen in cells or lysates may run through a third protein. Some results given as binding are weak or reduced against the parent protein; the word gives no strength. Where a sequence is shown, tags or fusion partners need not be part of it.

Assays:
[1] = target: T1, Flag-OSBP, full length (human) (UniProt P22059); assay: co-IP; Flp-In–293 cells coexpressing Flag-, EGFP- and Myc-tagged Rab11a, RELCH and OSBP; anti-Flag M2 affinity gel, immunoblot with EGFP, Myc and Flag antibodies
T1 sequence: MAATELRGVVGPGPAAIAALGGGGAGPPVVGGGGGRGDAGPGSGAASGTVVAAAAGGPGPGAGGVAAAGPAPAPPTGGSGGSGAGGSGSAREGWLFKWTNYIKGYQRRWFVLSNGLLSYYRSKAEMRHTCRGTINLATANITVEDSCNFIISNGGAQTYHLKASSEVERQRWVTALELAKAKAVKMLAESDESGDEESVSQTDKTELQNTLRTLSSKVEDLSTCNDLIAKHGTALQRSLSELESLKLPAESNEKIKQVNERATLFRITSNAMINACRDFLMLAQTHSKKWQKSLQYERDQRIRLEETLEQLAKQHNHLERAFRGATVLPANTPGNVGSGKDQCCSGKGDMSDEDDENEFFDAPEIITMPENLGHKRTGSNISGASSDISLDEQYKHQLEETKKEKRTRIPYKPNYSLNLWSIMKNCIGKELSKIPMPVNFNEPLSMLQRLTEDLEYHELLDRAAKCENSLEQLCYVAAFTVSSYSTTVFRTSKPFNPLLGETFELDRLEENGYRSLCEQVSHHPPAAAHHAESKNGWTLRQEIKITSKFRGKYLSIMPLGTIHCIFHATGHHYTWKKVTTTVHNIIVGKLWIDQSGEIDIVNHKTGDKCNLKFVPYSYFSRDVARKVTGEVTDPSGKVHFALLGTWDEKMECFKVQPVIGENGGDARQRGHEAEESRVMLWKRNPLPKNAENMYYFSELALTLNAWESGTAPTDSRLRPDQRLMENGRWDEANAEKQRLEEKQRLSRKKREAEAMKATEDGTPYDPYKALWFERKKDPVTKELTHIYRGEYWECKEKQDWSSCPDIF

[2] = target: T1, Flag-OSBP, full length (human); assay: co-IP; HEK293FT cells coexpressing Flag-tagged OSBP and Myc-tagged RELCH constructs; anti-Flag M2 affinity gel, elution with Flag-peptide, immunoblot with Myc and Flag antibodies
[3] = target: T2, Flag-tagged OSBP 1–404 (human) (UniProt P22059); assay: as above
T2 sequence: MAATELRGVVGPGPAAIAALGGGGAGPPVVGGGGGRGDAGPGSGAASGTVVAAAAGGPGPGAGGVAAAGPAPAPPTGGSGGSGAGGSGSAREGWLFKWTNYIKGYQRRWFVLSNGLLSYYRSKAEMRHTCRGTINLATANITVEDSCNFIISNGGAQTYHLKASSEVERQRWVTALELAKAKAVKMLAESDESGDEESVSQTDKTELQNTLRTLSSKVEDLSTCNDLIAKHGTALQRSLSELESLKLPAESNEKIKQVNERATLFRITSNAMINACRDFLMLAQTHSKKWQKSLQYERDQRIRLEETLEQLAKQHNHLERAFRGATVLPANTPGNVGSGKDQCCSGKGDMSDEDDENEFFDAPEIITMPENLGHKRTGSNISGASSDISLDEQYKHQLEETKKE

[4] = target: T3, Flag-tagged OSBP 405–729 (human) (UniProt P22059); assay: as above
T3 sequence: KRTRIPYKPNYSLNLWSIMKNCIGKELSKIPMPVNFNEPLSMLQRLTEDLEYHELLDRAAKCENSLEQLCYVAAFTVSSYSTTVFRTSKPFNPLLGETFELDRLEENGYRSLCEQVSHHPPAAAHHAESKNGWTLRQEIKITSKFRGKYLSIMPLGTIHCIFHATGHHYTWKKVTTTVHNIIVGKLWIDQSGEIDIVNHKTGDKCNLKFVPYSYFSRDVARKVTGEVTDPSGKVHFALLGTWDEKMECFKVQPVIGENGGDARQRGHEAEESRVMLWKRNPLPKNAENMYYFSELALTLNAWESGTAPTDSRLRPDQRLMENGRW

[5] = target: T4, Flag-tagged OSBP 405–807 (human) (UniProt P22059); assay: as above
T4 sequence: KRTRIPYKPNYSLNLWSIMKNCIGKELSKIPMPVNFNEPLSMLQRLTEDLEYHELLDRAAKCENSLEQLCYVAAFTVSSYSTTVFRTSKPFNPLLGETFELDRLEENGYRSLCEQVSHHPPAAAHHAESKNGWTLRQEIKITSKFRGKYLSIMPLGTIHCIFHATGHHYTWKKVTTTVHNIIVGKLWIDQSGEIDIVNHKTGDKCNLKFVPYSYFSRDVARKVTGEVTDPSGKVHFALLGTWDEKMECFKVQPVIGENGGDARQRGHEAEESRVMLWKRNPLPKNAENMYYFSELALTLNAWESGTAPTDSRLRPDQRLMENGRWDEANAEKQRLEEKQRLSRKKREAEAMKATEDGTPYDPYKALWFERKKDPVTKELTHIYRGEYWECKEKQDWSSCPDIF

[6] = target: T5, Flag-tagged OSBP 458–729 (human) (UniProt P22059); assay: as above
T5 sequence: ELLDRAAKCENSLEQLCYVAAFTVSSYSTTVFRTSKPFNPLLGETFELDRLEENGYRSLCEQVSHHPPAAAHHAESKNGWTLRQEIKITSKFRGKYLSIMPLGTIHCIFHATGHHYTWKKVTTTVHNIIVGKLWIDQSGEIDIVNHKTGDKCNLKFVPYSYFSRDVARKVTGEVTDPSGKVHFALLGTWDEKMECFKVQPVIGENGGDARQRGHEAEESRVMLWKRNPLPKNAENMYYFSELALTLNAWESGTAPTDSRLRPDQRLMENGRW

[7] = target: T6, Flag-tagged OSBP 643–807 (human) (UniProt P22059); assay: as above
T6 sequence: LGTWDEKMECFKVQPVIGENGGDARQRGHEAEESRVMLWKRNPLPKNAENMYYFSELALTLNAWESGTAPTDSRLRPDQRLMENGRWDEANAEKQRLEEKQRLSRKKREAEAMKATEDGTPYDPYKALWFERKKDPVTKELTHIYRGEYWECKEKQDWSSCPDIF

- binding [1]: binds
- binding [2]: binds
- binding [3]: no binding
- binding [4]: binds
- binding [5]: binds
- binding [6]: binds
- binding [7]: no binding
B1: Myc-tagged RELCH, full length (protein, UniProt Q148V7 1-1216)
chain: MAAMAPGGGGSGSGVNPFLSDSDEDDDEVAATEDRRAGLRLGAGVGLDPGSAGSLSPQDPMALGSSARPGLAVEMSAAPAALGGSGETPARLSIDAIAAQLLRDQYLLTALELHTELLESGRELPRLRDYFSNPGNFERQSGTPPGMGAPGIPGASIVGGAGGREPSTTSGGGQLNRAGSISTLDSLDFARYSDDGNRETDERVAVLEFELRKAKETIQALRANLTKAAEHEVPLQERKNYKSSPEIQEPIKPLEKRALNFLVNEFLLKNNYKLTSITFSDENDDQDFELWDDVGLNIPKPPDLLQLYRDFGNHQVTGKDLVDVASGVDEDELEALTPILGNVPPTLDTPLPIENTLLVQKLEDKISLLNNEKWSLMEQIRRLESEMDILKAEHFATPAVGDSVQPSLVWSSQKDSEDNRQSPAVNSSDQEKTKDVHLEIPDAADSFIPKENSSGSFPRKEREELPPSSVSNKTTLHFDQPNRKLSPAFHQALLSFCRMSADSRLGSEVSRIADSEKSVMLMLGRCLPHIVPNVLLAKREELIPLILCTACLHPEPKERDQLLHILFNLIKRPDDEQRQMILTGCVAFARHVGPTRVEAELLPQCWEQINHKYPERRLLVAESCGALAPYLPKEIRSSLVLSMLQQMLMEDKADLVREAVIKSLGIIMGYIDDPDKYQQGFELLLSALGDPSERVVSATHQVFLPAYAAWTTELGNLQSHLIPTLLNKIEKLLREGEHGLDEHKLHMYLSALQSLIPSLFALVLQNAPFSSKAKLHGEVPHIEVTRFPRPMSPLQDVSTIIGSREQLAVLLQLYDYQLEHEGTTGWESLLWVVNQLLPQLIEIVGKINVTSTACVHEFSRFFWRLCRTFGKIFTNTKVKPQFQEILRLSEENIDSSAGNGVLTKATVPIYATGVLTCYIQEEDRKLLVGFLEDVMTLLSLSHAPLDSLKASFVELGANPAYHELLLTVLWYGVVHTSALVRCTAARMFELLVKGVNETLVAQRVVPALITLSSDPEISVRIATIPAFGTIMETVIQRELLERVKMQLASFLEDPQYQDQHSLHTEVIRTFGRVGPNAEPRFRDEFVIPHLHKLALVNNLQIVDSKKLDIATHLFEAYSALSCCFISEDLMVNHFLPGLRCLRTDMEHLSPEHEVILSSMIKECEQKVENKTVQEPPGSMSIAASLVSEDTKTKFLNKMGQLTTSGAMLANVFQRKK
